# Measurements as given in the supplement of paper PMC11417369.
# This is one part of the list.
# Test system: PF3D7_0420300 AP2 domain 1 (GST-tagged)
# Assay: gcPBM binding intensity (ln(normalized median fluorescence intensity)); higher = stronger DNA binding
# Outline: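 In this array assay, P. falciparum DNA-binding domains with a GST tag, expressed in E. coli, were applied for 1 h to primer-extended double-stranded 36-bp intergenic genomic probes and negative controls on an Agilent 4 × 180k array. Bound protein was visualised with Alexa488 anti-GST antibody at 488 nm. Binding intensity is the highest Masliner-normalised natural-log median intensity across replicate spots of either probe orientation.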
row,Sequence,gcPBM binding intensity (ln)
1,AAAAAAATAACAAAATGTATACAATATAACAAAAAT [GTGCAC_negctrl_site512],9.7
2,AACATATACCCAGGTACATGCAAATATATATATTAT [TGCATGCA_site878],9.37
3,TTTAAAAATTAATTCTGTACACATTTTTATTTTATT [XGTACX_site8],9.35
4,TTCTTTCTTCAAAAGTGTACCAAATGTTAGAAAGGT [XGTACX_site4353],9.21
5,ATATATATATATATGTGTACACAACAAAATAAAAAA [XGTACX_site7378],9.56
6,AATGTATATAATATTAATATGTAAATATATAATCAA [CACACA_negctrl_site1683],9.31
7,TGAATAAATATATATACACACCCATATATATATATA [CACACA_site8833],9.36
8,TTAAAAAGTGCGTAGTGTACTAATATAAATAATACA [XGTACX_site2922],9.35
9,TATACCTATAAATACACACACATATATAAATATGTA [CACACA_site6625],9.76
10,TCCTTAAAAATCTAAAAAGAAAAAAACATATATTTT [GTGCAC_negctrl_site123],8.88
11,ATTATTATATATATAACACACATAATTATATACTTA [CACACA_site1563],9.47
12,AAATAAAAACCATATCGTACAAAAATTTTTGTATTT [XGTACX_site7497],9.55
13,ATATATATATATATATGTACTTAAAAATTTGTTTTG [XGTACX_site1514],8.9
14,AAGTCAATTTTTTTTTTTTTTTTTTAACTTATTAAT [TGCATGCA_negctrl_site14],9.08
15,GATCACTGAATAAAGGCACACATCTGACTAATTTTT [CACACA_site66],9.32
16,ATATCAACTGAATTGTATAGGCGATAAAAGAAAAAA [CACACA_negctrl_site1334],9.19
17,TTTATACATACATTCGTGCACATACGTATAACATAT,9.36
18,AGAATTATAAATTATAGTACATAAAATTTTGATGTA [XGTACX_site5726],9.2
19,ATATAAATATATGTATGTACACATTTTTTTTTTTTT [XGTACX_site247],9.29
20,AAACGATCTCGATGTTGTACACATTTATATAGAAAC [XGTACX_site4373],9.31
21,TACTAAAATATATATATGCAACATGAGATATTCAAC [XGTACX_negctrl_site283],9.46
22,CTAAACTAAACAAACTGTACACAAATAAAACAATAA [XGTACX_site8880],9.71

row,Sequence,gcPBM binding intensity (ln)
1,CATGTGTGTATAATTTGTACATATACATAATAAATA [XGTACX_site2418],9.55
2,GTTGTCCCCCTTTCTATGCACACTTTAAATTATTCA [CACACA_site52],9.89
3,ATTCTAATAGATAGTAGTACCTATAAGTTTTCTTTT [XGTACX_site2315],9.2
4,AATTTATAAGAATATTGTACGTTTAATATATTGTAA [XGTACX_site7553],9.15
5,AAAATAATAATTAAATAATAGTAAATGAAAAATAAA [CACACA_negctrl_site57],9.36
6,ATAAATACTAGGCACACACACATATAGATTTATATA [CACACA_site7064],10
7,TATGTGTTCAGTATTGCACACACACTCCAAAATAAA [CACACA_site8018],9.58
8,ACTTCATTTTATAAGTGTACATAATTTGTTTATATA [XGTACX_site5453],9.38
9,TATACAATATATTTTGGTACACAAACAAAAAAATAT [XGTACX_site2522],9.52
10,ATTAAAAGAACCAAGTGTACATTCTATATATAAAAA [XGTACX_site4260],9.23
11,GAAAAAGACAAAAGGTGTACAATATGAAATATATAT [XGTACX_site373],9.49
12,ATATTATGATCTATTTTTATATTCTATTTGATAAAT [CACACA_negctrl_site1070],9.2
13,GTTCACCAAAGGTAACGTACACAAACATATATATAT [XGTACX_site1073],9.07
14,TAATTCTAAATAAATGTACACACAAAAATAAATGTA [CACACA_site8509],9.54
15,TATATATATATTATATGTACATAAATATTTATACTC [XGTACX_site114],9.18
16,CTATTTTATATGTGCACACATATACACCCACAAATA [CACACA_site1131],9.59
17,TTGATAAAATGGGAGAAATTAAAAAGGAAAAAAAAA [CACACA_negctrl_site1279],9.23
18,TTATAAAATTTTCTTCTATATTTTAATTATTCTCAT [TGCATGCA_negctrl_site571],9.18
19,TCTCATAGGAAACACACACACACACCCACATATATA [CACACA_site1738],10.2
20,ATATATTTTTTAAATTTAAAAATTATAAAATTTATA [TGCATGCA_negctrl_site36],8.82
21,TAAATAAAAAAAAAAAGTACATACATACAAACATAT [XGTACX_site4427],9.58
22,ATATATGTGCGCGTATGTACATAAAATAAATATACA [XGTACX_site2689],9.58

row,Sequence,gcPBM binding intensity (ln)
1,TGGGTCTCTAACTGGTGTACTATTTACATATTATAC [XGTACX_site8593],9.52
2,TATGATTTTAACAACTGTACAATATAATAAATCTAA [XGTACX_site2198],9.01
3,ATATATTTTTAATTACGTACTTAATAATATATACAA [XGTACX_site3285],9.11
4,TAAAAGAAAAATTAGTGTACCAATATTAACATAAAA [XGTACX_site5474],9.25
5,TATATATTAAAATAATCACACACATCAATTAATGGT [CACACA_site8331],9.65
6,AAAAAATTATTAATTTGTACATAAATAACCAAAAAA [XGTACX_site2488],9.16
7,TAATTTATTACCATGTAATTATTACGAATATAGGAT [CACACA_negctrl_site694],9.04
8,TTAAATATAATTATATGTACATATTTATGTATATAT [XGTACX_site5811],9.1
9,AGATTGTATTTATGTACACACATTTTTGGAATATGA [CACACA_site1340],9.49
10,TTGATTAAAATTAGTACACACAAAATACATGCGGGG [CACACA_site5284],9.73
11,AATTTACAAAAAAGAAAAAAAAAAAAAAAGATACTT [CACACA_negctrl_site1434],9.18
12,ATATGCACTCATTGTGCACACGCATATTACGAAAAG [CACACA_site2637],9.24
13,ATATTATAATGTTTTTACGAATTCGCAAATTATTAT [GTGCAC_negctrl_site470],9.24
14,TTTTTTTTTTTTTTTTTTTTTTTTTTATGATATATA [GTGCAC_negctrl_site365],8.34
15,TTAATTATCCATTTTGCACACATTTTAAAACATGAA [CACACA_site189],9.36
16,TATTATTTACTTATTGCACACATATAAAATATATTT [CACACA_site9017],9.48
17,ATGAACTAAACTAATCGTACAATAAGTTTTATTATA [XGTACX_site4891],9.15
18,AAAAAAATATATAAATGTACATATTGTTTAATTAAT [XGTACX_site3794],9.17
19,TCACACACTCTCAAAAGTACAAGAAGATTATGAAGA [XGTACX_site4748],9.38
20,ATCTATCATATTTATGCACACAAAAATAATTAATTC [CACACA_site8837],9.34
21,GAAATATAATTTATTACACACATTTTAAAAAAATTC [CACACA_site1087],9.26
22,TTCAACGTTTTGGAATGTACAGAAAGGTATCCATCA [XGTACX_site179],8.99

row,Sequence,gcPBM binding intensity (ln)
1,AAAAAAAAAAAAAAAAAAAAAAAAAAAAAATATGTG [GTGCAC_negctrl_site657],9.46
2,TTTATAACATTTAAGAGTACAAAAAAATAAATAAAT [XGTACX_site1264],9.37
3,TAAAAGATAAAATATGCATGTGTAATTTTTTTTTTT [TGCATGCA_site955],9.17
4,ATAAAAATTTAAAAAGAACACACGAAAGAAGGACTT [CACACA_site3929],9.83
5,AATACCTACCAAACATGTACATACGCTTCTCAAATA [XGTACX_site5535],9.41
6,TATATAAACACGTACACACACATATCTGTATTTATA [CACACA_site5858],9.95
7,ATATTTTTAGGTGATTATTATTCGGAGAAGCGAATT [CACACA_negctrl_site1097],9.01
8,GTGAGCTCAGACTACACACACAAAGAAAAAAATAAA [CACACA_site1553],9.73
9,AACAAATACAGACACACACACACACCCAAAAAAAAA [CACACA_site515],9.99
10,ATACAACAAAAATAAGCACACACAAATATACATACA [CACACA_site9201],10.1
11,TTTTGAAGCTTTAAAACATATATATATATATATATA [CACACA_negctrl_site184],9.25
12,AGCAAAACAAAAAAATTAAAATTAACATATAATCAT [GTGCAC_negctrl_site393],9.26
13,AATAAGAGGATACATTGTACATAAAAAAAAAAAATA [XGTACX_site1815],9.33
14,ATGTTCTTATTATTGGTGCAAGAATACACAAGAAAA,9.15
15,TATTGTTCTTATTTAGTGCATATATAATATAATATA [GTGCAC_site9827],9.22
16,AACACATAATAAAATTGTACCCAACATTTCTTTTGA [XGTACX_site8061],9.26
17,TATGTGAATAAATAAGCACACATAAACACATATATA [CACACA_site9359],9.64
18,TATAATAATAATTATACATGCATGAATATTTATATG [TGCATGCA_site811],9.1
19,TCCTATATATAAATATTAATATATATGTATTGGTAT [GTGCAC_negctrl_site23],9.28
20,AAAAAAAAAAAAAACACACACACAAATACAAATGGT [CACACA_site1721],10.2
21,TTTCTTATTTTGGATTGTACGTATATTTTTCATTTT [XGTACX_site224],9.72
22,TTACACATGAGAAAATGTACATATAATAAAATATGT [XGTACX_site904],9.29
